According to a collection of fitness landscapes (doi:10.1016/j.celrep.2020.107928):
Over roughly 81,000 sequences, “one-hybrid fitness for binding parS DNA” has its median near -0.17; the highest 2% begin near 0.51. The list shows a part of the results.

B1: Caulobacter ParB omega fusion; a variant is named by its letters at X, in order, B8GW30 (parent)
chain: MESVVVGEPGMSEGRRGLGRGLSALLGEVDAAPAQAPGEQLGGSREAPIEILQRNPDQPRRTFREEDLEDLSNSIREKGVLQPILVRPSPDTAGEYQIVAGERAWRAAQRAGLKTVPIMVRELDDLAVLEIGIIENVQRADLNVLEEALSYKVLMEKFERTQENIAQTIGKSXSHVANXMRLLXLPDEVQSYLVSGELTAXHARAIAAAADPVALAKQIIEGGLSVRETEALARKAPNLSAGKSKGGRPPRVKDTDTQALESDLSSVLGLDVSIDHRGSTGTLTITYATLEQLDDLCNRLTRGI

Variants of: B1
Experiment: one-hybrid fitness for binding parS DNA (scaled: cognate 1, non-cognate 0); higher = stronger binding
Details: with parS DNA site
How it was run: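 Fitness here means the log change in variant-to-wild-type read ratio between plasmids sequenced before and after selection. That scale was set so cognate equals 1 and non-cognate equals 0. The selection was a bacterial one-hybrid screen of Caulobacter ParB libraries, four specificity codons randomised, in E. coli USO carrying a HIS3 reporter with the site 19 bp from the promoter, grown 48 hours at 37°C on M9-minus-histidine with 0.1 mM IPTG and 5 mM 3-AT.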

| Variant | one-hybrid fitness for binding parS DNA |
| --- | --- |
| LWTE | ≤ 0.2 |
| MVEG | ≤ 0.2 |
| EGVC | ≤ 0.2 |
| RWWM | ≤ 0.2 |
| LYAM | ≤ 0.2 |
| QDYT | ≤ 0.2 |
| EDQS | ≤ 0.2 |
| KVEY | ≤ 0.2 |
| FTHK | ≤ 0.2 |
| EHCG | ≤ 0.2 |
| TTWP | ≤ 0.2 |
| GRRV | ≤ 0.2 |
| AVIN | ≤ 0.2 |
| ALVK | ≤ 0.2 |
| RAKT | 0.824 |
| KGTC | ≤ 0.2 |
| MPNR | ≤ 0.2 |
| INPL | ≤ 0.2 |
| VRKA | ≤ 0.2 |
| LGRE | ≤ 0.2 |
| KAAG | ≤ 0.2 |
| LFPG | ≤ 0.2 |
| RYGM | 0.293 |
| PINP | ≤ 0.2 |
| SSFT | ≤ 0.2 |

| Variant | one-hybrid fitness for binding parS DNA |
| --- | --- |
| RFLS | 0.997 |
| HQQY | ≤ 0.2 |
| YNRP | ≤ 0.2 |
| AAPP | ≤ 0.2 |
| DDLS | ≤ 0.2 |
| DFLT | ≤ 0.2 |
| DRRP | ≤ 0.2 |
| ITQG | ≤ 0.2 |
| HAGT | ≤ 0.2 |
| RMPR | ≤ 0.2 |
| RITP | ≤ 0.2 |
| TSVG | ≤ 0.2 |
| QKKI | ≤ 0.2 |
| RMLR | ≤ 0.2 |
| NWPR | ≤ 0.2 |
| RIVY | 0.469 |
| RGYR | ≤ 0.2 |
| DNKI | ≤ 0.2 |
| LGWI | ≤ 0.2 |
| TAHQ | ≤ 0.2 |
| PKGC | ≤ 0.2 |
| MILR | ≤ 0.2 |
| TPIH | ≤ 0.2 |
| RPDE | ≤ 0.2 |
| RWKK | ≤ 0.2 |

| Variant | one-hybrid fitness for binding parS DNA |
| --- | --- |
| YSTN | ≤ 0.2 |
| TYAS | ≤ 0.2 |
| VFKP | ≤ 0.2 |
| ACSP | ≤ 0.2 |
| HSRV | ≤ 0.2 |
| YKEG | ≤ 0.2 |
| VRQV | ≤ 0.2 |
| ADKV | ≤ 0.2 |
| GMQL | ≤ 0.2 |
| RVIM | 0.261 |
| PAYF | ≤ 0.2 |
| GGQY | ≤ 0.2 |
| TGVK | ≤ 0.2 |
| LPYC | ≤ 0.2 |
| DWKR | ≤ 0.2 |
| MTGS | ≤ 0.2 |
| SDWT | ≤ 0.2 |
| WMDG | ≤ 0.2 |
| RADP | ≤ 0.2 |
| LNPF | ≤ 0.2 |
| YCQD | ≤ 0.2 |
| IGSH | ≤ 0.2 |
| TFPT | ≤ 0.2 |
| VMDR | ≤ 0.2 |
| VLAA | ≤ 0.2 |

| Variant | one-hybrid fitness for binding parS DNA |
| --- | --- |
| QFAL | ≤ 0.2 |
| PAPK | ≤ 0.2 |
| PQMK | ≤ 0.2 |
| QPIN | ≤ 0.2 |
| RFDE | ≤ 0.2 |
| RVSA | 0.581 |
| SCRC | ≤ 0.2 |
| STRD | ≤ 0.2 |
| AYTK | ≤ 0.2 |
| GAMC | ≤ 0.2 |
| RPYG | ≤ 0.2 |
| HTDA | ≤ 0.2 |
| GVMG | ≤ 0.2 |
| GFCL | ≤ 0.2 |
| VHCR | ≤ 0.2 |
| VVYN | ≤ 0.2 |
| QCQC | ≤ 0.2 |
| VRYT | ≤ 0.2 |
| VSAC | ≤ 0.2 |
| DLKH | ≤ 0.2 |
| SYLV | ≤ 0.2 |
| SSWC | ≤ 0.2 |
| VDRT | ≤ 0.2 |
| QYLR | ≤ 0.2 |
| KILT | ≤ 0.2 |

| Variant | one-hybrid fitness for binding parS DNA |
| --- | --- |
| RLGG | 0.995 |
| MMAM | ≤ 0.2 |
| QMWY | ≤ 0.2 |
| SLTW | ≤ 0.2 |
| NTLC | ≤ 0.2 |
| CCAR | ≤ 0.2 |
| RGRV | ≤ 0.2 |
| ERAR | ≤ 0.2 |
| HPLL | ≤ 0.2 |
| QQRM | ≤ 0.2 |
| PGPD | ≤ 0.2 |
| VPKQ | ≤ 0.2 |
| RETV | ≤ 0.2 |
| IRSY | ≤ 0.2 |
| VVRV | ≤ 0.2 |
| MPQL | ≤ 0.2 |
| ERSW | ≤ 0.2 |
| VMDC | ≤ 0.2 |
| DKPV | ≤ 0.2 |
| HDWL | ≤ 0.2 |
| KWAD | ≤ 0.2 |
| KTSR | ≤ 0.2 |
| MPSR | ≤ 0.2 |
| PLGN | ≤ 0.2 |
| NMLA | ≤ 0.2 |

| Variant | one-hybrid fitness for binding parS DNA |
| --- | --- |
| PMRS | ≤ 0.2 |
| QSMH | ≤ 0.2 |
| HGAW | ≤ 0.2 |
| TYVA | ≤ 0.2 |
| GNWS | ≤ 0.2 |
| PGNR | ≤ 0.2 |
| QRNM | ≤ 0.2 |
| WMPV | ≤ 0.2 |
| WQDT | ≤ 0.2 |
| HPHT | ≤ 0.2 |
| PVYL | ≤ 0.2 |
| TGYM | ≤ 0.2 |
| LTSV | ≤ 0.2 |
| FYHG | ≤ 0.2 |
| CPPR | ≤ 0.2 |
| GRRR | ≤ 0.2 |
| WRLH | ≤ 0.2 |
| NMEG | ≤ 0.2 |
| VHCT | ≤ 0.2 |
| WSNS | ≤ 0.2 |
| NWWT | ≤ 0.2 |
| PKNL | ≤ 0.2 |
| IKHT | ≤ 0.2 |
| CATV | ≤ 0.2 |
| MNQA | 0.233 |

| Variant | one-hybrid fitness for binding parS DNA |
| --- | --- |
| DPIK | ≤ 0.2 |
| FYPS | ≤ 0.2 |
| HDQL | ≤ 0.2 |
| KFKF | ≤ 0.2 |
| CVMK | ≤ 0.2 |
| AQKL | ≤ 0.2 |
| VPDI | ≤ 0.2 |
| LNSP | ≤ 0.2 |
| AGKW | ≤ 0.2 |
| VRTI | ≤ 0.2 |
| RHTA | 0.516 |
| PIAC | ≤ 0.2 |
| QKSG | ≤ 0.2 |
| RVLL | ≤ 0.2 |
| PYPW | ≤ 0.2 |
| LMCM | ≤ 0.2 |
| DYHS | ≤ 0.2 |
| RTAH | 0.21 |
| YDPG | ≤ 0.2 |
| NHQF | ≤ 0.2 |
| SRQE | ≤ 0.2 |
| QVAY | ≤ 0.2 |
| IIII | ≤ 0.2 |
| SDHG | ≤ 0.2 |
| GCRL | ≤ 0.2 |

| Variant | one-hybrid fitness for binding parS DNA |
| --- | --- |
| TTET | ≤ 0.2 |
| LMAT | ≤ 0.2 |
| PWNK | ≤ 0.2 |
| PFTR | ≤ 0.2 |
| NHAP | 0.214 |
| YEKF | ≤ 0.2 |
| YTNF | ≤ 0.2 |
| NSVC | ≤ 0.2 |
| SKHS | ≤ 0.2 |
| PKRY | ≤ 0.2 |
| EISF | ≤ 0.2 |
| FDHT | ≤ 0.2 |
| LMPW | ≤ 0.2 |
| IPIA | ≤ 0.2 |
| RSYH | ≤ 0.2 |
| NSPL | ≤ 0.2 |
| MLRW | ≤ 0.2 |
| MLTG | ≤ 0.2 |
| LDCS | ≤ 0.2 |
| TNIE | ≤ 0.2 |
